Data reported in the supplement of paper PMC6531468.
The other results are listed elsewhere or left out. Values come from read counts of a selection and are noisy. Each score is taken over the longer molecules that contain the sequence shown.

Tests used:
Experiment in all cases: 6-mer SELEX enrichment z-score vs GST control; IMP3 is the RNA-binding protein IGF2BP3; higher = more enriched by binding
[1] = test system: IMP3 KH1-4; details: construct: KH1-4 (164-579); SELEX round: R4
Procedure: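 SELEX-seq with GST-tagged IMP3 KH1-4 (Pro164-Lys579) and an N40 RNA pool, round 4. 6-mer z-score of sequence-tag enrichment normalised to the corresponding GST SELEX round; RNA k-mers written as DNA (T for U).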

[2] = test system: IMP3 RRM1-2; details: construct: RRM1-2 (1-163); SELEX round: R2
Procedure: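 SELEX-seq with GST-tagged IMP3 RRM1-2 (Met1-Asn163) and an N40 RNA pool, round 2. 6-mer enrichment z-score normalised to GST SELEX. RNA written as DNA (T = U).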

[3] = target: IMP3 full-length (UniProt O00425); details: construct: FL IMP3 (1-579); SELEX round: R4
Procedure: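 SELEX-seq with GST-tagged full-length IMP3 and an N40 RNA pool, round 4. Each 6-mer is scored as an enrichment z-score of sequence tags containing it, normalised to the matching GST SELEX round. RNA written as DNA (T = U).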

[4] = test system: IMP3 KH1-2; details: construct: KH1-2 (164-376); SELEX round: R4
Procedure: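 SELEX-seq with GST-tagged IMP3 KH1-2 (Pro164-Phe376) and an N40 RNA pool, round 4 (stringent 300/600 mM KCl washes). 6-mer z-score of sequence-tag enrichment normalised to the corresponding GST SELEX round; RNA k-mers written as DNA (T for U).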

[5] = test system: IMP3 KH3-4; details: construct: KH3-4 (377-579); SELEX round: R4
Procedure: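 SELEX-seq with GST-tagged IMP3 KH3-4 (Pro377-Lys579) and an N40 RNA pool, round 4. 6-mer z-score of sequence-tag enrichment normalised to the corresponding GST SELEX round; RNA k-mers written as DNA (T for U).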

Chain of UniProt O00425 (O00425 whole entry): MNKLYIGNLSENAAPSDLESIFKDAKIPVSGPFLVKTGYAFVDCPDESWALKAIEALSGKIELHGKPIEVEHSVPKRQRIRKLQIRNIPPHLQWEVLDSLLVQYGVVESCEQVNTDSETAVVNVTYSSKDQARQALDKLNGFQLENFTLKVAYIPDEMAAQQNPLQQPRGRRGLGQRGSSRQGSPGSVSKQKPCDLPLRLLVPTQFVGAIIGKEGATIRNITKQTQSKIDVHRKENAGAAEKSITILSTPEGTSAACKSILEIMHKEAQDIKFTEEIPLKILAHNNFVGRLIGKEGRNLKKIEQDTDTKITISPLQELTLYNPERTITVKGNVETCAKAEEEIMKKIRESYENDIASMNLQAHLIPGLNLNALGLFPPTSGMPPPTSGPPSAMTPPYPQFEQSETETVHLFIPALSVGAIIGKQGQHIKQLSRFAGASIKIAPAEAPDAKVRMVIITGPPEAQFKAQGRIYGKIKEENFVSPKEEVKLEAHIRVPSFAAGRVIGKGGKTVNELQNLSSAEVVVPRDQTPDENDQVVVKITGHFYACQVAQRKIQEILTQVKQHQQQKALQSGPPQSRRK
Chain of IMP3 KH3-4 (chain, as listed by the source): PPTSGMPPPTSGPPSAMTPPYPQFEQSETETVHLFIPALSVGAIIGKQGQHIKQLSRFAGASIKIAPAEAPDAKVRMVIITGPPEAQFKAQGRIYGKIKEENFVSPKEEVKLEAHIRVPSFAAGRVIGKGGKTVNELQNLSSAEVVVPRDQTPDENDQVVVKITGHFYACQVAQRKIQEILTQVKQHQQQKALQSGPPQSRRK
Chain of IMP3 RRM1-2 (chain, as listed by the source): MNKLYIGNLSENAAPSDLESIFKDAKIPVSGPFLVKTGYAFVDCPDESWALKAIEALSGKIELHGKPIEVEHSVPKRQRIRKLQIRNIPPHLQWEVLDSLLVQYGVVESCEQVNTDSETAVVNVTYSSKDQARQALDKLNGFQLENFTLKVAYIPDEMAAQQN
Chain of IMP3 KH1-4 (chain, as listed by the source): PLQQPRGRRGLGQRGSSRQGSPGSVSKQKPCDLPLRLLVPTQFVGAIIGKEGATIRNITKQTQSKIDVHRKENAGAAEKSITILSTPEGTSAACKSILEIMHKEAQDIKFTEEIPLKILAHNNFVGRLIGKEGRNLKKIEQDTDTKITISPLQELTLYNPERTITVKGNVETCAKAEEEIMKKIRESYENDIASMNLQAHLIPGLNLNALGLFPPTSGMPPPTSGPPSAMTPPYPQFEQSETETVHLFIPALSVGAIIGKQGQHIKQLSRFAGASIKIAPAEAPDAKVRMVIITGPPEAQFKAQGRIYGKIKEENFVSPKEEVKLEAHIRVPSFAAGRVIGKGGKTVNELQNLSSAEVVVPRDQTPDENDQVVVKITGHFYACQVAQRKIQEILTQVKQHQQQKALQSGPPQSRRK
Chain of IMP3 KH1-2 (chain, as listed by the source): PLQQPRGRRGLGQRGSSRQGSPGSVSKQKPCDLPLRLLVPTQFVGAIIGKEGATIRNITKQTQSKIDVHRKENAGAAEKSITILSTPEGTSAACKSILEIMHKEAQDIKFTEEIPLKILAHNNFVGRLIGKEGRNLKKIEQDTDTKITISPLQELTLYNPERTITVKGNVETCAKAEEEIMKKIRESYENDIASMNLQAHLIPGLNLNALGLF

Sequence	6-mer SELEX enrichment z-score [1]	6-mer SELEX enrichment z-score [2]	6-mer SELEX enrichment z-score [3]	6-mer SELEX enrichment z-score [4]	6-mer SELEX enrichment z-score [5]
ATACAA	2.31	0.862	1.53	2.67	2.64
AGCAGG	0.741	0.647	1.12	0.638	0.51
ACCATG	0.139	0.618	0.037	-0.006	-0.222
AACCTA	-1.42	-1.07	-1.93	-1.46	-1.57
CGGCTG	0.486	0.235	0.939	0.35	0.377
ATGATT	1.69	-0.199	0.177	1.31	2.21
TATATG	1.5	-0.053	0.238	1.12	1.86
AACTTA	0.638	-0.512	-0.508	0.634	1.08
AGCTCT	-0.241	0.29	0.04	-0.146	-0.122
GGTGCC	-1.25	0.124	-0.329	-1.03	-1.05
TAATCA	1.22	1.52	1.06	1.16	1.47
ACCCTC	-0.87	-0.135	-0.844	-0.766	-1.36
TAGGAC	0.175	0.642	-0.022	-0.035	0.079
CACTCA	0.002	2.7	0.97	0.091	-0.565
CTTCTC	0.16	0.424	0.106	0.237	-0.079
TCGCAG	-0.214	0.249	0.297	-0.226	-0.253
GTAACA	0.078	0.092	0.248	-0.026	0.17
CGACGC	-1.73	-0.519	-0.657	-1.46	-1.73
CCTATG	-0.159	-0.243	-0.542	-0.279	-0.339
CGGGGA	0.571	-0.527	0.467	0.842	0.661
AGATTA	1.18	-0.432	-0.064	0.913	1.79
CGGGAA	-0.107	-0.89	-0.164	-0.039	0.024
TTTACA	1.52	0.5	0.67	1.87	1.88
TCAATG	0.27	0.377	0.427	0.048	0.243
TCGCTC	-0.015	0.404	0.303	0.071	-0.091

Sequence	6-mer SELEX enrichment z-score [1]	6-mer SELEX enrichment z-score [2]	6-mer SELEX enrichment z-score [3]	6-mer SELEX enrichment z-score [4]	6-mer SELEX enrichment z-score [5]
CGCGGT	-0.287	0.193	0.065	-0.258	-0.175
GCCTCG	-0.984	0.032	-0.078	-0.801	-0.796
GGCAGT	0.642	0.347	1.02	0.567	0.717
AGTGAT	0.197	-0.316	-0.256	-0.037	0.344
ACTCGT	-0.906	-0.008	-0.46	-0.82	-0.803
GTTGGT	-0.12	0.547	0.101	-0.004	0.1
TCTGGC	-0.059	0.404	0.378	-0.029	-0.016
TCCCTT	0.57	0.163	-0.181	0.429	0.14
AATCAA	0.337	2.12	0.842	0.376	0.637
ACTTGA	-0.931	-0.491	-0.846	-0.954	-0.836
AATGCA	1.45	-0.083	0.578	1.12	1.27
ATTTAT	1.54	0.274	0.52	1.41	2.23
TAAGAT	0.997	-0.46	-0.21	0.774	1.63
GTGCTC	-0.396	0.313	0.099	-0.244	-0.248
GCTCAA	-0.539	0.23	0.016	-0.472	-0.455
GGAATT	0.514	-0.263	-0.161	0.367	0.769
ATGCAC	1.52	0.453	1.01	1.21	0.845
AGAAGC	-0.561	-0.703	-0.49	-0.505	-0.339
AGTCCT	0.195	-0.117	-0.186	0.038	-0.084
GACGAA	-1.01	-1.82	-1.28	-0.999	-0.792
ATTAGG	0.712	0.308	0.357	0.559	1.03
GTAGGG	0.212	0.321	0.301	0.376	0.428
AGCCTA	-1.02	-0.663	-0.806	-0.906	-0.853
AGCCGT	-0.912	-0.312	-0.236	-0.846	-0.914
AAATAC	0.574	-1.18	-0.781	0.863	1.12

Sequence	6-mer SELEX enrichment z-score [1]	6-mer SELEX enrichment z-score [2]	6-mer SELEX enrichment z-score [3]	6-mer SELEX enrichment z-score [4]	6-mer SELEX enrichment z-score [5]
GCTTTG	0.082	0.293	0.052	0.086	0.192
CATGAG	-0.722	0.306	0.072	-0.841	-0.663
TCGGTC	0.404	0.475	0.698	0.289	0.344
GTTTGA	-0.271	-0.053	-0.439	-0.337	-0.105
ACGGTT	-0.188	0.028	-0.162	-0.282	-0.107
TGGACT	-0.015	-0.232	-0.288	-0.103	-0.039
CTAATT	0.712	-0.048	-0.095	0.725	0.964
TCTCCA	0.149	0.438	0.169	0.165	-0.212
TATGCG	0.061	0.022	-0.217	-0.045	0.316
TATCAT	1.5	1.36	1.48	1.48	1.53
AACGCT	-0.387	-0.654	-0.667	-0.275	-0.442
GTTTGC	-0.191	0.282	-0.125	-0.18	-0.137
GTCTGG	-0.085	0.413	0.295	0.049	0.073
TGCAAG	0.304	-0.103	0.058	0.132	0.219
ACCCGA	-2.96	-1.66	-2.35	-2.83	-3.26
TCTCAA	-0.374	0.404	0.139	-0.22	-0.421
CCCGGA	-1.28	-1.39	-0.898	-1.07	-1.42
CAAGGT	-0.376	0.058	-0.014	-0.429	-0.251
GACAGG	1.03	-0.339	0.893	1.01	0.858
TCAGGT	0.14	0.833	0.637	0.103	0.198
CATGTG	0.58	0.455	0.493	0.268	0.342
AGCCAT	0.14	0.119	0.389	0.068	-0.088
GTTCCT	0.085	0.228	-0.107	-0.008	-0.044
GTGTAC	-0.641	0.053	-0.232	-0.593	-0.559
GCTCCT	0.143	0.073	0.105	0.2	0.003

Sequence	6-mer SELEX enrichment z-score [1]	6-mer SELEX enrichment z-score [2]	6-mer SELEX enrichment z-score [3]	6-mer SELEX enrichment z-score [4]	6-mer SELEX enrichment z-score [5]
ACTATA	2.06	-0.117	0.186	1.98	2.28
CATATC	1.13	1.55	1.41	1.14	0.797
TTTTCT	0.87	0.536	0.366	0.931	0.955
TTCTCG	-0.481	0.468	0.072	-0.317	-0.264
GTGGAT	0.175	0.025	-0.121	0.07	0.244
GTGCGA	-0.35	-0.173	-0.145	-0.355	-0.302
AGGAGT	0.625	-0.082	0.306	0.5	0.613
CGTCGG	0.538	0.476	1.52	0.517	0.45
GGGGGC	1.85	0.191	0.962	2.75	1.93
GGTAGT	-0.141	0.407	0.054	-0.085	0.086
ACGGCT	0.599	0.33	0.917	0.281	0.648
TGAACG	-0.815	-1.09	-0.96	-0.885	-0.627
TCTCGA	-0.761	0.482	-0.074	-0.58	-0.503
ATAGGC	1.04	0.513	0.873	0.784	1.11
GTTTGT	0.078	0.358	-0.029	0.031	0.264
CCCCCG	0.41	-0.865	-0.395	1.23	-0.646
AGCCTG	-0.895	-0.466	-0.635	-0.867	-0.927
GTGGTT	-0.403	0.504	-0.178	-0.254	-0.086
GACAGA	0.378	-0.834	0.183	0.427	0.293
AACAAT	1.51	0.772	1.19	2.1	2.23
GAAGCG	-1.69	-0.78	-0.974	-1.53	-1.23
AATTCA	1.42	1.46	1.62	1.71	1.57
GTTTTA	0.133	0.169	-0.081	0.19	0.474
CCTCAG	-0.645	0.312	-0.017	-0.66	-0.807
CAGTAT	0.453	0.227	0.411	0.413	0.526
